The RNAGym collection of RNA variant scans (doi:10.7554/elife.90254)
The source gives no read counts; variants with many changes may rest on few reads.

B1: OR4K15 (parent)
chain: GUUAACGGUCAUAGGCCAUGGAAACUAGGAGCACCAUUUCGCUGCCAGUGAAGAAAUGAACAAAGAAAAUCUGGGCCAGGCAGGCAUCAAAAGAAAUAGUCUUGCGCUCAACCAGAAAGUCUGUAAUCAUUUUAAGGGUA

Variants of: B1
Assay: self-cleavage, relative activity (ratio to wild type); higher = more cleavage; in vitro, sequencing; the parent is a self-cleaving ribozyme
U19A A86U U132C gave a self-cleavage of 1.08. In the case of G14A A22U A96U U130A, the self-cleavage is reported as 1.11. A33G A69G A82G A111U showed a self-cleavage of 0.02. In the case of G7A U26C U43C A90G C101U, the self-cleavage is reported as 0.08. With A116G U122G U132C the self-cleavage was 0.62. For C105G U124A U131C, the self-cleavage was 0.01. In the case of A30G A47C A62G A67G A126G, the self-cleavage is reported as 0.73. Work on U2C A11G U38C A111G A126G yielded a self-cleavage of 0.05. In the case of A11G A66G A82G, the self-cleavage is reported as 0.18. U38G A98G U139C gave a self-cleavage of 1.15. In the case of G21A A22G A52U, the self-cleavage is reported as 2.08. In the case of A23G G58U A140G, the self-cleavage is reported as 1.38. With A30G U37G U38C the self-cleavage was 0.76. G8A U39C A63G showed a self-cleavage of 2.06. In the case of A56G A111G U131C, the self-cleavage is reported as 0.01. A18G A27U U102C gave a self-cleavage of 1.38. In the case of U9C U39C U87C A118G, the self-cleavage is reported as 0.96. For A92G A94G U103C, the self-cleavage was 1.18. A68G G83A U102A showed a self-cleavage of 0.21. A33G A59G A67G A117G showed a self-cleavage of 0.9. U43C A47G A60G showed a self-cleavage of 1.51. Variant A62G U108C C109U has a self-cleavage of 0.02. Variant A59G A69G U124C has a self-cleavage of 0.7. In the case of A62G A68G A82G U108C A111G, the self-cleavage is reported as 0.01. A30G U49C A52G A60U U103C showed a self-cleavage of 0.31. In the case of A52G U87A A135G, the self-cleavage is reported as 1.24. For U49C A68U U122C, the self-cleavage was 0.75. A5C A52G A95G A114U A118G gave a self-cleavage of 0.49. Variant A60G U72A A82G A117G has a self-cleavage of 0.21. For A47G A67G U102C, the self-cleavage was 2.34. For C32U A86G U139C, the self-cleavage was 2.27. With A64G A111G U124C the self-cleavage was 0. In the case of C34U A68G U103G A114C, the self-cleavage is reported as 0.02. With A22U A23G U43A A82U A111G the self-cleavage was 0.05. A47G A51U U132A gave a self-cleavage of 0.6. Work on U39C U43C A62G yielded a self-cleavage of 1.76. In the case of A11G A63G A90G G138U, the self-cleavage is reported as 1.64. With U57A G74U U97A the self-cleavage was 0.24. For A24G A86G U124A, the self-cleavage was 0.67. In the case of G44A A47G A55G U130C, the self-cleavage is reported as 1.77. In the case of C16U U43C U108C A116G, the self-cleavage is reported as 0.03. For U12C A30C U57A A68G, the self-cleavage was 1.03. In the case of U49C A78G A96G, the self-cleavage is reported as 0.15. A51G A67G U102A showed a self-cleavage of 1.23. For A24G A52G G53U, the self-cleavage was 1.09. For A18U U19C A24G G31A U122C, the self-cleavage was 0.46. U9C A36G A78G A89C gave a self-cleavage of 0.57. With U39A U43A U103C U120G the self-cleavage was 0.66. In the case of U39C U57C U72A A94G C109U U132C, the self-cleavage is reported as 0.04. In the case of U39C A66C U108C, the self-cleavage is reported as 0.02. U70C A95G A110G gave a self-cleavage of 0.15. Variant A23G U43G U108C U120C has a self-cleavage of 0.02. A82U A86U A89U A114G A116G gave a self-cleavage of 0.05. G7U A62U U127A showed a self-cleavage of 1.63. G14A U38A U39C A67G showed a self-cleavage of 1.04. A52G A54G A140U gave a self-cleavage of 1.19. In the case of A5U A59G A116U A118G A135G, the self-cleavage is reported as 0.2. Variant A22G A69C U70C has a self-cleavage of 0.47. A69G A135U U139C showed a self-cleavage of 0.79. Work on A18G A60G A66U A114G yielded a self-cleavage of 0.06. Variant A55G U87C A96G has a self-cleavage of 1.86. For G1A A24G A27G C107U, the self-cleavage was 0.03. For A18G U26A A91G A98G U108C, the self-cleavage was 0.01. U102C A111G U122A U130C gave a self-cleavage of 0.01. In the case of A67G U72C A94G, the self-cleavage is reported as 0.33. With A11G U19C A63G U108C G119A the self-cleavage was 0.02. Work on A23G A47G U102C A116G yielded a self-cleavage of 1.15. In the case of A30G U43C A64G A82G, the self-cleavage is reported as 0.33. With A78G A92G A111U the self-cleavage was 0.02. With U102C C105U A117G U120C the self-cleavage was 0.24. A68G U72C U127A showed a self-cleavage of 0.5. Variant U57C A94G U122C has a self-cleavage of 0.57. A52U U57C A68G U108C A117G U122C gave a self-cleavage of 0.01. Work on A22G U72A A129G yielded a self-cleavage of 0.1. With A33U A51U A59G U103C U139C the self-cleavage was 0.11. For A18U A27G U39C U72C, the self-cleavage was 0.38. With U49C A51G A68G U132C the self-cleavage was 1.08. For U3C U38C U49C U70C G84U A114G, the self-cleavage was 0.07. With A18G A91G A94G the self-cleavage was 1.34. With U37C A51G A91G U131C the self-cleavage was 0.56. U70C U108C A116G A134U showed a self-cleavage of 0. C6U A51U G106U gave a self-cleavage of 0.05. Work on U19C A89G U122C yielded a self-cleavage of 0.91. C6A U97C U130C showed a self-cleavage of 1.4.
